Laboratory results: ChEMBL document CHEMBL4888484, “Replenishing the malaria drug discovery pipeline: Screening and hit evaluation of the MMV Hit Generation Library 1 (HGL1) against asexual blood stage Plasmodium falciparum ,using a nano luciferase reporter read-out” (2022)
About 540 (0.36%) of roughly 150,000 compounds showed an effect of 50% or more. The list shows a part of the results.

These compounds were tested on Plasmodium falciparum (assay: Primary screen in NF54 nanoGlo assay, in single point, at 2uM, 72h; a lower Z score goes with more inhibition). Conditions: timepoint 72 hour.
Type: functional, Erythrocyte
With CN(c1cccnn1)S(=O)(=O)c1cnc2n1CCC2 the “% Inhibition” value was 3% and the Z score was -0.5.
In the case of COc1cc(=O)n2c(c1C(=O)NCc1c(C)n[nH]c1C)CCCCC2, the “% Inhibition” value is reported as -10% and the Z score is reported as 1.12.
Cc1cc(CC(=O)N(C)Cc2ccncc2)n[nH]1 was tested, and the “% Inhibition” value was -17% and the Z score was 1.84.
Cc1nc(C)c(C(=O)OCc2csc(-c3ccccc3)n2)s1 was tested, and the “% Inhibition” value was -9% and the Z score was 1.13.
For Cn1nc([C@@H]2CCCO2)cc1NC(=O)NCC(F)(F)F, the “% Inhibition” value was -12% and the Z score was 1.13.
In the case of CC(=O)O/N=C(/c1ccc2c(c1)OCO2)N1CCOCC1, the “% Inhibition” value is reported as -9% and the Z score is reported as 1.68.
With COc1c(F)cccc1C(=O)Nc1ccc2c(c1)C[C@H](C)O2 the “% Inhibition” value was -3% and the Z score was 0.56.
With Cc1ccc(C2=C[C@@H](c3ccc(C)cc3)n3nnnc3N2CC(=O)Nc2cccc(F)c2)cc1 the “% Inhibition” value was -7% and the Z score was 0.67.
In the case of CC1(C)C(=O)Nc2ccc(C(=O)N[C@H]3CCCn4ncnc43)cc21, the “% Inhibition” value is reported as 1% and the Z score is reported as -0.21.
For O=C(c1cnccn1)N1C[C@H]2CC[C@@H](C1)N(C(=O)CC1CCCC1)C2, the “% Inhibition” value was 3% and the Z score was -0.57.
In the case of Cc1nsc(C(=O)NCc2ccc(CCO)cc2)n1, the “% Inhibition” value is reported as 9% and the Z score is reported as -1.56.
In the case of O=C(COC(=O)c1ccc(-c2ccccc2)cc1)Nc1ccc2c(c1)OCO2, the “% Inhibition” value is reported as -7% and the Z score is reported as 1.34.
For CC(C)N(CC(=O)N(C)C(C)(C)C#N)Cc1cccc(Cl)c1, the “% Inhibition” value was 0% and the Z score was -0.02.
For CC(C)CCOc1ccc(CN(CC(C)(C)N(C)C)C(=O)NCC(F)(F)F)cc1, the “% Inhibition” value was -8% and the Z score was 1.49.
With Cc1cc(Cl)ccc1NC(=O)NCC(=O)N(C)C the “% Inhibition” value was -6% and the Z score was 1.16.
With CC(C)C1=NO[C@H](C(=O)NCc2ccc3[nH]cnc3c2)C1 the “% Inhibition” value was 14% and the Z score was -1.64.
In the case of Cc1noc(C)c1CC(=O)N[C@H]1CC[C@H](Oc2cnccn2)CC1, the “% Inhibition” value is reported as -10% and the Z score is reported as 1.15.
For Cc1ccc(-c2ncn(C3CCCC3)c2-c2ccc(C(=O)NCc3ccccc3C)o2)cc1, the “% Inhibition” value was 2% and the Z score was -0.29.
With O=C1Nc2cc(C(=O)N3CCN(c4cccc(C(F)(F)F)c4)CC3)ccc2N2CCCC[C@@H]12 the “% Inhibition” value was -6% and the Z score was 0.89.
Cc1nnc(CC(=O)N2CCC(Cc3cc(F)cc(F)c3)CC2)o1 was tested, and the “% Inhibition” value was -7% and the Z score was 0.9.
With C[C@H]1CN(Cc2cccnc2)CCN1C(=O)c1ccnc(C2CCCC2)n1 the “% Inhibition” value was -7% and the Z score was 0.94.
In the case of CN1CCCC[C@H](CC(=O)N2CCN(c3cccc(Cl)c3)CC2)C1=O, the “% Inhibition” value is reported as -2% and the Z score is reported as 0.29.
For O=C1N(Cc2cccnc2)CCC[C@@]12CCN(c1nc(CO)cs1)C2, the “% Inhibition” value was -6% and the Z score was 0.67.
CCN(Cc1ccccc1)c1ccc(NS(=O)(=O)c2ccccc2Cl)cc1C(=O)O was tested, and the “% Inhibition” value was -11% and the Z score was 1.09.
OCCN(Cc1cccnc1)c1nc(-c2ccsc2)nc2scc(-c3ccccc3)c12 was tested, and the “% Inhibition” value was 0% and the Z score was -0.06.
For COc1ccc(Cl)cc1-c1cnsc1, the “% Inhibition” value was 1% and the Z score was -0.16.
CCS(=O)(=O)NC(=O)c1ccnn1C(C)C was tested, and the “% Inhibition” value was 13% and the Z score was -1.69.
With Cc1cc(NC(=O)c2cc(O)ncn2)sn1 the “% Inhibition” value was -7% and the Z score was 1.14.
With CCOC(=O)[C@@H]1CCc2sc(N)nc21 the “% Inhibition” value was -6% and the Z score was 0.7.
With c1ccc2oc(NC[C@H]3COCO3)nc2c1 the “% Inhibition” value was 10% and the Z score was -1.1.
For Cc1cnn(Cc2nnnn2-c2ccccc2)c(=O)c1, the “% Inhibition” value was -12% and the Z score was 1.21.
In the case of CCC(N[C@@H]1C=C[C@H](CO)C1)c1nccn1C (stereo not given in full), the “% Inhibition” value is reported as -1% and the Z score is reported as 0.14.
With CN(C)CCNC(=O)C1CCN(C(=O)c2cc3ccsc3n2Cc2ccc(Cl)cc2)CC1 the “% Inhibition” value was 0% and the Z score was 0.02.
O=C(NCc1ccc(CO)c(F)c1)[C@@H]1CCCCO1 was tested, and the “% Inhibition” value was -3% and the Z score was 0.46.
CCC1Oc2cc(C(C)NC(=O)C3CC4C=CC3C4)ccc2NC1=O (stereo not given) was tested, and the “% Inhibition” value was 14% and the Z score was -1.92.
In the case of O=S(=O)(N[C@H]1CCOC[C@@H]1O)c1ccc(F)c(Cl)c1, the “% Inhibition” value is reported as -2% and the Z score is reported as 0.43.
For CCc1ccc(-c2cc(-c3nc(N)sc3C)nc(N)c2C#N)o1, the “% Inhibition” value was -9% and the Z score was 1.24.
In the case of CCN(CC(F)(F)F)C(=O)c1ccc(-c2cncn2C)cc1, the “% Inhibition” value is reported as -19% and the Z score is reported as 2.89.
Cc1n[nH]c(C)c1NS(=O)(=O)c1cccc2cncc(Br)c12 was tested, and the “% Inhibition” value was -4% and the Z score was 0.51.
CC1=C[C@@H](CNS(=O)(=O)c2ccccc2)[C@H](C(C)C)C[C@H]1Cc1nc2ccncc2[nH]1 was tested, and the “% Inhibition” value was -7% and the Z score was 1.01.
With O=C(N[C@H]1CO[C@@H](CN2CCC(F)(F)C2)[C@@H]1O)c1cccc(F)c1 the “% Inhibition” value was 29% and the Z score was -3.24.
CC(C)(C)OC(=O)C1C[C@@H](N)[C@@H](n2cc(C(C)(C)C)nn2)C1 (stereo not given in full) was tested, and the “% Inhibition” value was -7% and the Z score was 1.24.
Cc1cc(CN(C)C[C@H]2CC23CC3)no1 was tested, and the “% Inhibition” value was -3% and the Z score was 0.59.
In the case of O=C(Nc1ccnn1C1CCCC1)c1ccco1, the “% Inhibition” value is reported as -5% and the Z score is reported as 1.02.
For CCc1cccc(NC(=O)Cc2nc(-c3cccnc3)n[nH]2)c1, the “% Inhibition” value was -13% and the Z score was 2.1.
CC(OC12CCCCC1C(c1ccccc1)C2(C#N)C#N)c1ccccc1 (stereo not given) was tested, and the “% Inhibition” value was -1% and the Z score was 0.13.
For COc1ncc(CN2CC[C@@]3(CCCN(Cc4ccc(F)c(F)c4)C3=O)C2)cn1, the “% Inhibition” value was -16% and the Z score was 3.
With CNC(=O)Cn1cnc(NS(=O)(=O)c2ccccc2Cl)n1 the “% Inhibition” value was 2% and the Z score was -0.31.
In the case of Cc1sc(NC(=O)c2cc(-c3cccnc3)nc3ccc(Cl)cc23)c(C(=O)NCc2cccnc2)c1C, the “% Inhibition” value is reported as -3% and the Z score is reported as 0.41.
CCC[C@H](C)NC(=O)CN(CCO)C1CC1 was tested, and the “% Inhibition” value was -7% and the Z score was 0.86.
CC(C)C(=O)N1CCC[C@@H]1Cc1noc(-c2cnccn2)n1 was tested, and the “% Inhibition” value was -2% and the Z score was 0.29.
With c1ccc(-c2nc3cccnc3nc2N2CCCCC2)cc1 the “% Inhibition” value was -5% and the Z score was 0.66.
For COCCn1ccnc1-c1nc2c([nH]1)c(C)nn2C(C)C, the “% Inhibition” value was -5% and the Z score was 0.66.
With C[C@H]1C(=O)N(C)CCN1C(=O)c1coc(COc2ccc(F)cc2Cl)n1 the “% Inhibition” value was -14% and the Z score was 2.31.
CC(C)c1nc(-c2nccn2CCN2CCOCC2)co1 was tested, and the “% Inhibition” value was -10% and the Z score was 0.92.
With COC(C)c1cccc(NC(=O)N(C)CC(O)C(F)(F)F)c1 (stereo not given) the “% Inhibition” value was -1% and the Z score was 0.08.
CCn1nnc(C)c1CN1Cc2cn[nH]c2C[C@H](C)C1 was tested, and the “% Inhibition” value was 2% and the Z score was -0.39.
With Cc1nn(CC(=O)NCc2cccnc2)c(=O)n1Cc1ccccc1 the “% Inhibition” value was -7% and the Z score was 1.45.
With O=C(Nc1ccc2c(c1)OCO2)C(C1CC=CCC1)N(Cc1ccc(Cl)cc1)C(=O)Cn1nnc2ccccc21 (stereo not given) the “% Inhibition” value was -30% and the Z score was 3.52.
Cc1cc(F)ccc1-n1cc(O)c(C(=O)N2CCC[C@H](N3CCCC3)CC2)n1 was tested, and the “% Inhibition” value was -5% and the Z score was 0.75.
CC(C)(C)CCN1CCn2c(nnc2[C@@H]2C[C@@H](O)CN2Cc2ccncc2)C1 was tested, and the “% Inhibition” value was 1% and the Z score was -0.17.
Cc1cccc([C@H](C)NS(=O)(=O)N2CCN(C)CC2)n1 was tested, and the “% Inhibition” value was -2% and the Z score was 0.29.
For CCCn1c(C)cnc1[C@H]1CCN(C(=O)Nc2ccc3c(c2)OCCO3)C1, the “% Inhibition” value was -6% and the Z score was 0.96.
O=C(N1CC2CCC(O)CC2C1)C1(c2cccnc2)CCCC1 (stereo not given) was tested, and the “% Inhibition” value was 9% and the Z score was -1.24.
With Cc1ccc2ncc(C(=O)OCc3cccc4cn[nH]c34)n2c1 the “% Inhibition” value was 29% and the Z score was -3.77.
With CC(CO)(CO)NCc1ccc(Cl)cc1Cl the “% Inhibition” value was -5% and the Z score was 0.83.
With OC1(Cc2ccccn2)CCN(Cc2nnnn2C2CC2)CC1 the “% Inhibition” value was -9% and the Z score was 1.43.
With Cc1cccc([C@H](CNC(=O)c2cccc(N3C(=O)CCS3(=O)=O)c2)N2CCOCC2)c1 the “% Inhibition” value was 5% and the Z score was -0.98.
With O=C(NCc1cccs1)N1CCC[C@H](Oc2cnccn2)C1 the “% Inhibition” value was -12% and the Z score was 2.13.
O=C(C(O)C1CCC1)N1CCCC1CCO (stereo not given) was tested, and the “% Inhibition” value was -8% and the Z score was 0.97.
For CN(Cc1ncnn1C)c1ccc(Br)cc1C#N, the “% Inhibition” value was -8% and the Z score was 0.89.
In the case of COc1ccc([C@@H](C)NC(=O)N[C@@H]2CCCOC2)c(OC)c1, the “% Inhibition” value is reported as -1% and the Z score is reported as 0.11.
In the case of O=C(Nc1cccc2c1OCCC2)[C@H]1CCn2ccnc2C1, the “% Inhibition” value is reported as -12% and the Z score is reported as 2.28.
With O=C(C[C@H]1CCOC1)N1CCN(CC2CCC2)CC1 the “% Inhibition” value was 5% and the Z score was -0.61.
For CCN1C(=O)CCc2cc(N[C@@H](C)CCn3cccn3)ccc21, the “% Inhibition” value was -4% and the Z score was 0.72.
For Cc1noc(C)c1[C@@H]1CCCN1S(=O)(=O)c1ccc(C(C)(C)C)cc1, the “% Inhibition” value was -2% and the Z score was 0.42.
For Cc1ccc(-n2nc(N3CCCN(C(=O)Cc4ccc(Cl)cc4)CC3)ccc2=O)cc1C, the “% Inhibition” value was 10% and the Z score was -1.19.
In the case of CC(C)N1CC[C@@H]2[C@H]1C(=O)NC[C@H](CCC(=O)NCc1cccs1)N2C, the “% Inhibition” value is reported as 11% and the Z score is reported as -1.48.
For O=C([C@H]1CCCN(Cc2ccco2)C1)N1CCN(c2nccs2)CC1, the “% Inhibition” value was -3% and the Z score was 0.49.
With c1cnc2c(CN3CCCO[C@@H](CN4CCCCC4)C3)cnn2c1 the “% Inhibition” value was -7% and the Z score was 0.88.
For O=C(Cn1nc2ccc(C(=O)NCc3ccccc3)cn2c1=O)Nc1ccc2c(c1)CCC2, the “% Inhibition” value was -21% and the Z score was 1.84.
O=C(NC[C@]1(O)CCCc2occc21)c1ccccc1F was tested, and the “% Inhibition” value was 14% and the Z score was -1.72.
For C[C@@H]1NC(=O)N(c2ccccc2NC(=O)CN(C)Cc2ccc(F)cc2)C1=O, the “% Inhibition” value was -9% and the Z score was 0.9.
In the case of COc1ccc(CN2CCC(CN3CCCCC3)CC2)c(F)c1F, the “% Inhibition” value is reported as -2% and the Z score is reported as 0.43.
For CC(C)c1ccc(CC(=O)N2CCn3nc(CCC(=O)O)cc3C2)cc1, the “% Inhibition” value was -14% and the Z score was 1.97.
